In patent US9045526B2 (THE REGENTS OF THE UNIVERSITY OF MICHIGAN, priority 2011, dated 2015):
Numbered stars: 1 amine (or outer) side, 2 acyl side, 3 side chain; on linkers, the order of the positions; unused ones are H or OH. Bridge positions count the residues as written; N and C are the ends. Square brackets hold non-standard residues; d marks the D form. Peptide text beside a SMILES is read from it. * marks the point of attachment. βGlc = OC[C@H]1O[C@@H](*)[C@H](O)[C@@H](O)[C@@H]1O; Dmt = Cc1cc(O)cc(C)c1C[C@H](N)C(=O)O; dPen = CC(C)(S)[C@@H](N)C(=O)O; Aic = NC1(C(=O)O)Cc2ccccc2C1; CH2CH2 = C(C[*:2])[*:1]

Tests used:
[1] = target: T1, kappa-opioid receptor (KOR) (Homo sapiens, UniProt P41145); test: [35S]GTPγS binding (G protein stimulation) at KOR; assay type: biochemical; conditions: for [35S]GTPγS stimulation at KOR (% max): percent of standard U69,593
T1 construct: expressed in transfected cells
T1 sequence (P41145 whole entry): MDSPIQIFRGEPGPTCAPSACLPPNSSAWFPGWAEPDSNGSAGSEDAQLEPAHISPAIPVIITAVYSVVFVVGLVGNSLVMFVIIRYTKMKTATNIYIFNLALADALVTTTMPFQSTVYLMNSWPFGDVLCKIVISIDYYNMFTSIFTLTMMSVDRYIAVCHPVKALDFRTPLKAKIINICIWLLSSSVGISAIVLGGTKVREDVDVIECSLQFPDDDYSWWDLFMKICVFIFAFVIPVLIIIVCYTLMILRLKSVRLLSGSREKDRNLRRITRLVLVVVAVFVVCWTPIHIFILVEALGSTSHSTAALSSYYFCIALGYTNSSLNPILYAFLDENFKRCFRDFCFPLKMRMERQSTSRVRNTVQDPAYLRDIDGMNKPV

mu-opioid receptor (MOR) [2] = target: T2, mu-opioid receptor (MOR) (Rattus norvegicus, UniProt P33535); test: [35S]GTPγS binding (G protein stimulation) at MOR; assay type: biochemical; conditions: for maximal [35S]GTPγS stimulation at MOR (% max): percent of stimulation by 10 μM DAMGO
T2 construct: expressed in transfected cells; host or cells: C6 rat glioma cells (C6-MOR), stably transfected
T2 sequence (P33535 whole entry): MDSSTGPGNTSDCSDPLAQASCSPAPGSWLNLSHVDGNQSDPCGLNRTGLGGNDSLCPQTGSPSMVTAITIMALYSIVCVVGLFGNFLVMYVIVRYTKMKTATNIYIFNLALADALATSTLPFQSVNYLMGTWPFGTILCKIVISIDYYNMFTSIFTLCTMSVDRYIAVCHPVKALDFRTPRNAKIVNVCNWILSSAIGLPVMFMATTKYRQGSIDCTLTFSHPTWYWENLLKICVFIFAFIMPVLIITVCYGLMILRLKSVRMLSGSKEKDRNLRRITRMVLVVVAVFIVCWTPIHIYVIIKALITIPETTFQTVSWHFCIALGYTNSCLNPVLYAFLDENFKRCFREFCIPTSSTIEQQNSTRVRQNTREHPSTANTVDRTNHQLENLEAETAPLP

[3] = target: T3, delta-opioid receptor (DOR) (Rattus norvegicus, UniProt P33533); test: [35S]GTPγS binding (G protein stimulation / antagonism of DPDPE) at DOR; assay type: biochemical; conditions: for [35S]GTPγS stimulation at DOR (% max): compared to DPDPE; for G protein stimulation at DOR, in words: up to 10 μM
T3 construct: expressed in transfected cells; host or cells: C6 rat glioma cells (C6-DOR), stably transfected
T3 sequence (P33533 whole entry): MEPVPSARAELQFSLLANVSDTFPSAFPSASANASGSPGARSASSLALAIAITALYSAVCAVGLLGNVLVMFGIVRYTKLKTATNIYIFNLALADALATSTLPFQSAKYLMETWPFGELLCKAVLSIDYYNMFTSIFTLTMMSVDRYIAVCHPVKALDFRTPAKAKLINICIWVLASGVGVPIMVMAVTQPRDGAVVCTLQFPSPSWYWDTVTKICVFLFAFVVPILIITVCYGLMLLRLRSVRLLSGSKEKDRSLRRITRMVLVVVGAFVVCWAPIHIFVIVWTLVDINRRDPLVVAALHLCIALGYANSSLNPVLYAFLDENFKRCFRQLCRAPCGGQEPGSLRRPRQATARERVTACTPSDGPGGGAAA

[4] = target: T3, delta-opioid receptor (DOR); test: Whole cell inhibition of forskolin-stimulated adenylyl cyclase, C6-DOR cells; assay type: cell-based
mu-opioid receptor (MOR) [5] = target: T2, mu-opioid receptor (MOR); test: Whole cell inhibition of forskolin-stimulated adenylyl cyclase at MOR; assay type: cell-based; conditions: read-out: inhibition of forskolin-stimulated cAMP at MOR
[6] = Cell permeability assay, Caco-2 monolayer, apical to basolateral; assay type: in vitro ADME; conditions: human; Caco-2, apical pH 6.4 to basolateral pH 7.4, 100 μM peptide; read-out: permeability coefficient (Papp)
Protocol: Cell Permeability Assay: Caco-2 cells at a passage line of 21 were seeded at a density of 0.3×10^5 cells/well on untreated culture inserts of polycarbonate membrane with 0.4 μm pores and a surface area of 1.12 cm^2. The culture inserts containing the Caco-2 cells were placed in a 12 transwell plate. The DMEM, high glucose culture medium, supplemented with 10% FBS, was generally changed every other day. Transport studies were performed 21 days after seeding upon full differentiation and the TEER values were stable at 500-600Ω cm^2. The study of transport from apical to basolateral was initiated by removal of medium from both sides of the monolayer and replacement with apical buffer, pH 6.4 (500 μL) and basolateral buffer, pH 7.4 (1500 μL), both warmed to 37° C. The cells were incubated for 15 minutes at 37° C., 5% CO2. The buffers were then removed and replaced with 500 μL 100 μM peptide in apical buffer on the apical side and 1500 μL basolateral buffer on the basolateral side, both prewarmed to 37° C. For the duration of the experiment, cells were kept at 37° C. except during the 100 μL sample removal from the basolateral side at predetermined times (15, 30, 45, 60, 75, 90 minutes). The samples were added to 200 μL 0.1% TFA in acetonitrile, and 100 μL of basolateral buffer was added to the basolateral side of the monolayer. […] Samples were analyzed by HPLC.

SMILES | [35S]GTPγS stimulation at KOR (% max) [1] | maximal [35S]GTPγS stimulation at MOR (% max) (mu-opioid receptor (MOR) [2]) | [35S]GTPγS stimulation at DOR (% max) [3] | G protein stimulation at DOR, in words [3] | EC50 (mu-opioid receptor (MOR) [2]) | also measured
Cc1cc(O)cc(C)c1C[C@H](N)C(=O)N[C@@H]1CSCCSC(C)(C)[C@H](C(N)=O)NC(=O)C2(Cc3ccccc3C2)NC1=O [Compound 1] (H-[Dmt][dC][Aic][dPen]-NH2; linker 2-4 via CH2CH2; N-terminus assumed) | 3% | 58% | 37% | either low efficacy partial agonists or produced no measureable G protein stimulation | – | –
Cc1cc(O)cc(C)c1C[C@H](N)C(=O)N[C@@H]1CSCCSC(C)(C)[C@H](C(=O)O)NC(=O)C2(Cc3ccccc3C2)NC1=O [Compound 2] (H-[Dmt][dC][Aic][dPen]-OH; linker 2-4 via CH2CH2; N-terminus assumed) | – | 59% | – | – | 4.1 nM | G protein stimulation at KOR, in words [1]: displayed no G protein stimulation; potency at G protein stimulation relative to endomorphin-2 (mu-opioid receptor (MOR) [2]; MOR): 31 times; potency at G protein stimulation relative to morphine (mu-opioid receptor (MOR) [2]; MOR): 47 times; shift in the EC50 for DPDPE-mediated inhibition of adenylyl cyclase ([4]; 100 nM compound): 9.5 fold; % of forskolin stimulation (cAMP) ([4]; 10 μM compound): 91%; Ke (adenylyl cyclase) relative to binding affinity to DOR ([4]; rat, c6-dor cells): 3 fold; rightward shift in the DPDPE concentration-response curve ([35S]GTPγS) ([3]; 100 nM compound): 26 fold
Cc1cc(O)cc(C)c1C[C@H](N)C(=O)N1Cc2ccccc2C[C@H]1C(=O)NCC(=O)NCc1ccccc1 [Dmt-Tic-Gly-NH-Bzl, reference compound] (HELM PEPTIDE1{[Cc1cc(O)cc(C)c1C[C@H](N)C(=O)[*:2]].[Tic].G.[c1ccc(CN[*:1])cc1]}$$$$V2.0; N-terminus assumed) | 5% | 7% | 21% | – | 1.4 nM | inhibition at 1 µM (mu-opioid receptor (MOR) [5]): 35%; forskolin stimulation remaining at DOR (decreased from 100%) [4]: 72%; inhibition at 1 µM ([4]; read-out: inhibition of forskolin-stimulated cAMP at DOR): 28%; EC50 for [35S]GTPγS stimulation at DOR ([3]; compound alone): No EC50 could be calculated
Cc1cc(O)cc(C)c1C[C@H](N)C(=O)N[C@@H]1CSCCSC(C)(C)[C@H](C(=O)N[C@@H](CO)C(N)=O)NC(=O)C2(Cc3ccccc3C2)NC1=O [VRP-19] (H-[Dmt][dC][Aic][dPen]S-NH2; linker 2-4 via CH2CH2) | – | 44±11% | – | either low efficacy partial agonists or produced no measureable G protein stimulation | – | –
Cc1cc(O)cc(C)c1C[C@H](N)C(=O)N[C@@H]1CSCCSC(C)(C)[C@H](C(=O)N[C@@H](CCCNC(=N)N)C(N)=O)NC(=O)C2(Cc3ccccc3C2)NC1=O [VRP-24] (H-[Dmt][dC][Aic][dPen]R-NH2; linker 2-4 via CH2CH2) | – | 37.1±11% | – | either low efficacy partial agonists or produced no measureable G protein stimulation | – | –
Cc1cc(O)cc(C)c1C[C@H](N)C(=O)N[C@@H]1CSCCSC(C)(C)[C@H](C(=O)N[C@@H](CO[C@@H]2O[C@H](CO)[C@@H](O)[C@H](O)[C@H]2O)C(N)=O)NC(=O)C2(Cc3ccccc3C2)NC1=O [VRP-26] (H-[Dmt][dC][Aic][dPen]S(βGlc)-NH2; linker 2-4 via CH2CH2; N-terminus assumed) | – | – | – | – | – | Papp A→B at 100 μM [6]: 13.4 ± 7.3 ×10⁻⁶ cm/s
